Test results taken from patent publication US20250179210A1, “ANTI-CEACAM5 ANTIBODIES AND CONJUGATES AND USES THEREOF” (Merck Patent GmbH, priority 2022, published 2025).

B1: ADC1-M (conjugate)
heavy: EVQLQESGPGLVKPSQTLSLTCTVSDGSVSRGGYYLTWIRQHPGKGLEWIGYIYYSGSTYFNPSLRSRVTMSVDTSKNQFSLKLSSVTAADTAVYYCARGIAVAPFDYWGQGTLVTVSSASTKGPSVFPLAPSSKSTSGGTAALGCLVKDYFPEPVTVSWNSGALTSGVHTFPAVLQSSGLYSLSSVVTVPSSSLGTQTYICNVNHKPSNTKVDKRVEPKSCDKTHTCPPCPAPEAAGGPSVFLFPPKPKDTLYITREPEVTCVVVDVSHEDPEVKFNWYVDGVEVHNAKTKPREEQYNSTYRVVSVLTVLHQDWLNGKEYKCKVSNKALPAPIEKTISKAKGQPREPQVYTLPPSREEMTKNQVSLTCLVKGFYPSDIAVEWESNGQPENNYKTTPPVLDSDGSFFLYSKLTVDKSRWQQGNVFSCSVMHEALHNHYTQKSLSLSPG
light: EIVLTQSPATLSVSPGERATLSCRTSQSVRSNLAWYQQKPGQAPRLLIYAASTRATGIPARFSGSGSGTEFTLTISSLQSEDFAVYYCQQYTNWPFTFGPGTKVDIKRTVAAPSVFIFPPSDEQLKSGTASVVCLLNNFYPREAKVQWKVDNALQSGNSQESVTEQDSKDSTYSLSSTLTLSKADYEKHKVYACEVTHQGLSSPVTKSFNRGEC
B2: ADC2-M (conjugate)
heavy: EVQLQESGPGLVKPSQTLSLTCTVSDGSVSRGGYYLTWIRQHPGKGLEWIGYIYYSGSTYFNPSLRSRVTMSVDTSKNQFSLKLSSVTAADTAVYYCARGIAVAPFDYWGQGTLVTVSSASTKGPSVFPLAPSSKSTSGGTAALGCLVKDYFPEPVTVSWNSGALTSGVHTFPAVLQSSGLYSLSSVVTVPSSSLGTQTYICNVNHKPSNTKVDKRVEPKSCDKTHTCPPCPAPEAAGGPSVFLFPPKPKDTLYITREPEVTCVVVDVSHEDPEVKFNWYVDGVEVHNAKTKPREEQYNSTYRVVSVLTVLHQDWLNGKEYKCKVSNKALPAPIEKTISKAKGQPREPQVYTLPPSREEMTKNQVSLTCLVKGFYPSDIAVEWESNGQPENNYKTTPPVLDSDGSFFLYSKLTVDKSRWQQGNVFSCSVMHEALHNHYTQKSLSLSPG
light: EIVLTQSPATLSVSPGERATLSCRTSQSVRSNLAWYQQKPGQAPRLLIYAASTRATGIPARFSGSGSGTEFTLTISSLQSEDFAVYYCQQYTNWPFTFGPGTKVDIKRTVAAPSVFIFPPSDEQLKSGTASVVCLLNNFYPREAKVQWKVDNALQSGNSQESVTEQDSKDSTYSLSSTLTLSKADYEKHKVYACEVTHQGLSSPVTKSFNRGECGGTLQSPP

Tests used:
[1] = system: human patient-derived CRC xenograft model COPF230; assay: CRC PDX mouse model COPF230; assay type: in vivo; conditions: for efficacy compared to ADC SAR DM4 in CRC PDX models (expected): COPF230 and REPF210
Description: (§1) Anti-tumor efficacy in vivo was evaluated in the human patient-derived CRC xenograft models COPF230 and REPF210 (Shanghai LideBiotech CO., LTD). Tumor fragments were transplanted subcutaneously into the right flank of six to eight weeks old immunodeficient female mice (NU-Foxn1nu, Charles River). […] Tumor length (L) and width (W) were measured with calipers and tumor volumes were calculated using the formula L×(W^2)/2.
Anti-tumor efficacy of ADC1-M and ADC3-M in comparison to ADC SAR DM4 was in the human CRC xenograft model COPF230. The study was performed at Lide Biotech (Shanghai). Six to eight weeks old immunodeficient female mice (Crl: NU-Foxn1nu) were transplanted subcutaneously in the right flank with COPF230 tumor fragments. When tumors reached a mean volume of 165 mm^3 6 mice/group were treated once intravenously with vehicle (saline solution) or with ADC1-M, ADC3-M or ADC SAR DM4 (each 6 mg/kg). Tumor length (L) and width (W) were measured with calipers and tumor volumes were calculated using L×W^2/2.

LS174T = assay: Viability assay (Cell Titer-Glo); assay type: cell-based, human; conditions: Table 3; at the highest tested compound concentration
MDA-MB-231 = assay: Viability assay (Cell Titer-Glo); assay type: cell-based, human; conditions: Table 3; for MDA-MB-231 maximal effect compared to untreated controls: at the highest tested compound concentration
SK-CO-1 = assay: Viability assay (Cell Titer-Glo); assay type: cell-based, human; conditions: Table 3; at the highest tested compound concentration
SNU-16 = assay: Viability assay (Cell Titer-Glo); assay type: cell-based, human; conditions: Table 3; at the highest tested compound concentration
MKN-45 = assay: Viability assay (Cell Titer-Glo); assay type: cell-based, human; conditions: Table 3; at the highest tested compound concentration
[2] = system: CEACAM5-negative MDA-MB-231 cells in co-culture with CEACAM5-positive SK-CO-1 cells; assay: Bystander assay; assay type: cell-based, human; conditions: for non-specific effect on MDA-MB-231 cells alone (only controls) / bystander effect against CEACAM5-negative MDA-MB-231 cells in the presence of CEACAM5-positive SK-CO-1: ADC concentration of 1 nM; for bystander effect against CEACAM5-negative MDA-MB-231 cells in the presence of CEACAM5-positive SK-CO-1: six days; for bystander effect compared to ADC SAR DM4: co-culture, 1 nM
Description: Cytotoxicity effects of ADCs on antigen-negative cancer cell lines in co-culture with antigen-positive cancer cell lines were measured by bystander assays. One thousand CEACAM5-negative MDA-MB-231 cells were seeded in co-culture experiments with 750 or 3000 CEACAM5-positive SK-CO-1 cells per well. As a control, 1000 MDA-MB-231 cells only were seeded in parallel. Cells were seeded in a total volume of 90 μL in 96-well plates the day before treatment. Test compounds were formulated at 10-fold the final concentration of 1E-9 M in cell culture medium and 10 μL was added to the cells in duplicates. Plates were cultured at 37° C. in a CO2 incubator for six days.
Prior to immunofluorescence staining, medium was removed and cells were treated with 100% methanol (−20° C.) for 30 minutes. After methanol removal and one PBS wash step, cells were treated with 2.5% paraformaldehyde (PFA) with 0.2% Triton X-100 in PBS for 15 minutes at room temperature. After solution removal and one PBS wash step, cells were treated with 1% BSA/0.1% Tween/0.1% sodium azide in PBS for at least one hour at room temperature. Antigen-positive and antigen-negative cells were discriminated by immunofluorescence staining with 10 μg/mL human anti-CEACAM5 (mAb1) primary antibody and 1:2000 dilution of donkey anti-human IgG fluorescently (phycoerythrin) labeled secondary antibody (Jackson ImmunoResearch #709-116-149). Cells were identified by nuclei staining using 1 μg/mL Hoechst 33342 (Life technologies, cat #H3570) dye. Staining was carried out in 1% BSA/0.1% sodium azide PBS solutions for 30 minutes at room temperature. Secondary antibody staining was combined with Hoechst dye staining. Between and after staining steps, cells were washed thrice with PBS.
Plates were imaged with the confocal quantitative image cytometer CQ1 (Yokogawa® Electric Corporation, Tokyo, Japan). Analysis was adapted from the CQ1 software (Yokogawa) template “Nucleus and pseudo-Cell body” and FCS export files were analyzed using FlowJo (BD). Based on staining or absence of staining with fluorescently labeled antibody around the nucleus, antigen-positive and antigen-negative cells were distinguished and quantified. Bar graphs show the number of identified antigen-positive and antigen-negative cells per treatment condition.

[3] = system: human pancreatic cell line derived xenograft model HPAF-II; assay: Pancreatic cell line derived xenograft model HPAF-II; assay type: in vivo, mouse; conditions: for anti-tumor effect: single i.v. treatment
Description: 5×10^6 HPAF-II cells were injected subcutaneously into the right flank of six to eight weeks old immunodeficient female mice (Hsd:Athymic Nude-Foxn1nu, Envigo). […] Tumor length (L) and width (W) were measured with calipers and tumor volumes were calculated using L×(W^2)/2.
Efficacy of ADC1-M and ADC3-M in comparison to ADC8 was evaluated in the human pancreatic adenocarcinoma, cell line-derived xenograft model HPAF-II (ATCC, CRL-1997). Six to eight weeks old immunodeficient female mice (Hsd:Athymic Nude-Foxn1nu, Envigo) were injected subcutaneously in the right flank with 5×10^6 HPAF-II cells. When tumors reached a mean volume of 150 mm^3, 10 mice/group were treated once intravenously with ADC1-M (1 mg/kg or 6 mg/kg) or with ADC3-M (1 mg/kg or 6 mg/kg) or with ADC8 (1 mg/kg or 6 mg/kg). Tumor length (L) and width (W) were measured with calipers and tumor volumes were calculated using L×W^2/2.

[4] = Pharmacokinetic study in human FcRn transgenic mice; conditions: for C0: back extrapolation; for t1/2: total antibody
[5] = system: human pancreatic, cell line derived xenograft model BxPC3; assay: Pancreatic cell line derived xenograft model BxPC3; assay type: in vivo, mouse; conditions: single i.v. treatment; ADC1-M 5 mg/kg, ADC2-M 5 mg/kg or 10 mg/kg
Description: Efficacy of ADC1-M and ADC2-M has been evaluated in the human pancreatic, cell line derived xenograft model BxPC3 (ATCC, CRL-1687). 5×10^6 BxPC3 cells were injected subcutaneously into the right flank of six to eight weeks old immunodeficient female mice (Hsd:Athymic Nude-Foxn1nu, Envigo). When tumors reached a mean volume of 85 mm^3, 10 mice/group were treated once intravenously with vehicle (saline solution) or ADC1-M (5 mg/kg; day 0) or with ADC2-M (5 mg/kg or 10 mg/kg; day 0). Tumor length (L) and width (W) were measured with calipers and tumor volumes were calculated using L×(W^2)/2.

[6] = system: human patient-derived gastric xenograft model GAPF313; assay: Gastric PDX mouse model GAPF313; assay type: in vivo
Description: as §1, with “gastric” for “CRC”, “model GAPF313” for “models COPF230 and REPF210”
Anti-tumor efficacy of ADC1-M and ADC3-M in comparison to ADC SAR DM4 has been evaluated in the human GC xenograft model GAPF313. The study was performed at Lide Biotech (Shanghai). Six to eight weeks old immunodeficient female mice (Crl: NU-Foxn1nu) were transplanted subcutaneously in the right flank with GAPF313 tumor fragments. When tumors reached a mean volume of 176 mm^3 6 mice/group were treated intravenously every other week (3 cycles) with vehicle (saline solution) or with 4 mg/kg ADC1-M or ADC3-M or 4.7 mg/kg ADC SAR DM4. Tumor length (L) and width (W) were measured with calipers and tumor volumes were calculated using L×W^2/2.

Molecule | efficacy compared to ADC SAR DM4 in CRC PDX models (expected) [1] | LS174T maximal effect compared to untreated controls (LS174T) | MDA-MB-231 maximal effect compared to untreated controls (MDA-MB-231) | SK-CO-1 maximal effect compared to untreated controls (SK-CO-1) | SNU-16 maximal effect compared to untreated controls (SNU-16) | MKN-45 maximal effect compared to untreated controls (MKN-45) | non-specific effect on MDA-MB-231 cells alone (only controls) [2] | bystander effect against CEACAM5-negative MDA-MB-231 cells in the presence of CEACAM5-positive SK-CO-1 [2] | bystander effect compared to ADC SAR DM4 [2] | bystander effect compared to ADC SAR (expected) [2] | efficacy compared to ADC3 (expected) [3] | AUCinf ([4]; 3 mg/kg i.v., HuFcRn mice) [µg·h/mL] | AUClast ([4]; 3 mg/kg i.v., HuFcRn mice) [µg·h/mL] | Cl ([4]; 3 mg/kg i.v., HuFcRn mice) [mL/day/kg] | Tlast ([4]; 3 mg/kg i.v., HuFcRn mice) [h] | Vss ([4]; 3 mg/kg i.v., HuFcRn mice) [L/kg] | Vz ([4]; 3 mg/kg i.v., HuFcRn mice) [L/kg] | C0 ([4]; 3 mg/kg i.v., HuFcRn mice) [µg/mL] | t1/2 ([4]; 3 mg/kg i.v., HuFcRn mice) [h] | anti-tumor effect [5] | other results
B1 | compare similarly favorably to ADC SAR DM4 | (−86%) | (−71%) | (−95%) | (−97%) | (−96%) | no non-specific effect | potent bystander effect | much more potent bystander effect | more potent bystander effects than ADC SAR | compare similarly favorably to ADC3 | 2590 | 2580 | 27.8 | 504 | 0.113 | 0.108 | 49.9 | 64.5 | significant anti-tumor effect | anti-tumor effect ([1]; single i.v. treatment, 6 mg/kg): comparable and significant anti-tumor effect; IC50 (MDA-MB-231; n ≥ 3, CEACAM5 Negative, cut-off for potency reporting −50% effect, otherwise n/a): > 10 nM; anti-tumor effect ([3]; 1 mg/kg): minor and temporary anti-tumor effect; anti-tumor effect ([3]; 6 mg/kg): much stronger anti-tumor effect; %_Ext ([4]; 3 mg/kg i.v., HuFcRn mice, extrapolated part of AUCinf): 0.4%; efficacy compared to ADC SAR DM4 (expected) [6]: compare similarly favorably to ADC SAR DM4; anti-tumor effect ([6]; i.v. every other week (3 cycles), 4 mg/kg ADC1-M or ADC3-M, 4.7 mg/kg ADC SAR DM4): comparable and significant anti-tumor effect
B2 | compare similarly favorably to ADC SAR DM4 | (−67%) | (−16%) | (−92%) | (−78%) | (−80%) | no non-specific effect | potent bystander effect | much more potent bystander effect | more potent bystander effects than ADC SAR | compare similarly favorably to ADC3 | 10200 | 8360 | 7.03 | 504 | 0.877 | 0.0802 | 56.1 | 190 | significant anti-tumor effect | PK profile (plasma exposure, Cl, t½) ([4]; single iv administration of 3 mg/kg in transgenic mice): best PK profile; efficacy compared to ADC SAR DM4 (expected) [6]: compare similarly favorably to ADC SAR DM4
